Measured values reported in PubChem BioAssay (NCI).
Values joined by “and” are separate entries in the source; they are usually repeats but may differ in a detail not shown here. Equal entries are not always repeated.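 In this assay, cells in 96-well plates receive the compound at five concentrations for 48 hours. Endpoints are linearly interpolated between the surrounding concentrations. GI50: concentration for 50% inhibition of growth. Definition used: TGI = concentration required for complete inhibition of growth.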 Peptide text beside a SMILES is read from it. * marks the point of attachment. Boc = CC(C)(C)OC(=O)*

System: NCI-H322M lung
Assay: inhibition of tumour cell growth, NCI panel, 48 h

| SMILES | TGI | GI50 |
| --- | --- | --- |
| CC(=O)Nc1ccc(Nc2nc(=O)[nH]c(=O)[nH]2)cc1 | > 100 µM | – |
| Cc1ccc(-c2cc3nc(-c4ccccc4)nc(C(Cl)Cl)n3n2)cc1 | 1.43 µM | 0.64 µM |
| CC(C)n1c(=O)c2nn3c(=O)n(C(C)C)c(=O)c3nn2c1=O | > 100 µM | – |
| COC1C(O)=C2C(=O)OC(C)(O)/C=C/C=C\C=C/C=C/C(c3ccccc3)NC(=O)/C=C/C=C/C=C/C=C/C2(C)C1O (stereo not drawn) | 0.239 µM and 0.316 µM | – |
| CC(NC(=O)c1ccc(OP(=O)(OCC2=CC(=O)c3ccccc3C2=O)N(C)CCCCCl)cc1)c1ccc(OCC2CCCCC2)c(C(N)=O)c1 (stereo not drawn) | 36.5 µM | – |
| C=CCN(N=O)C(=O)N(CCC)CCCC(NC(C)=O)C(=O)NCc1ccccc1 (stereo not drawn) | > 100 µM | – |
| COc1ccc(-c2cn3ccnc3c(-c3ccc4ncn(C5CCCCC5)c4c3)n2)cc1 | > 100 µM | > 100 µM |
| O=C1Cc2c(-c3ccccc3)cc(-c3cccc(Cl)c3)nc2-c2ccccc2N1 | 13.9 µM | – |
| CC(=O)C(=C(I)I)c1ccccc1 | 32.5 µM | – |
| COC(=O)/C=C1/OC(c2ccccc2)=C(Cl)C1=O | > 66.3 µM | – |
| COc1ccc([N+](=O)[O-])c2c(NCC(O)CO)ccnc12 (stereo not drawn) | > 100 µM | – |
| CCCCCCCCCCCCC(SCCNC(=O)CCNC(=O)C(O)C(C)(C)COP(=O)(O)OP(=O)(O)OCC1OC(n2cnc3c(N)ncnc32)C(O)C1OP(=O)(O)O)C(=O)NCC(N)=O (stereo not drawn) | > 100 µM | – |
| CSc1n[n+](C)cc(N)c1N | > 100 µM | – |
| Cc1nnc2c3c(-c4ccccc4)c(-c4ccccc4)oc3nc(N(C)C)n12 | > 100 µM | – |
| Brc1ccc2c(c1)C1=C(CO2)Cc2ccccc2O1 | 31.9 µM | – |
| CCCCCCCCCCCC(=O)C1=C(O)C(O)CCC1=O (stereo not drawn) | 74.8 µM | – |
| CCCCc1cc(O)ccc1O | > 100 µM | > 100 µM |
| Clc1ccc(-c2nc(-c3ccc(Cl)cc3)[s+]s2)cc1 | > 100 µM | – |
| C=C(CNCCO)[C@@H]1CC[C@]2(CO)CC[C@]3(C)[C@H](CC[C@@H]4[C@@]5(C)CCC(NCCc6ccc(O)cc6)C(C)(C)[C@@H]5CC[C@]43C)[C@@H]12 (stereo partly drawn) | 3.19 µM | 1.7 µM |
| COc1cc(C(C#N)NNC(=O)c2ccccc2O)ccc1O (stereo not drawn) | > 100 µM | – |

| SMILES | TGI | GI50 |
| --- | --- | --- |
| CCc1cccc(C)c1NC(=O)CC1Sc2ccccc2NC1=O (stereo not drawn) | > 100 µM | – |
| CCN(CC)C(=S)SSC1CCCCC1 | > 100 µM | 41.4 µM |
| CCOC(=O)/C=C/c1ccc(C(=O)OCC)[nH]1 | > 100 µM | 4.1 µM |
| CCCN(CCC)c1c([N+](=O)[O-])cc(S(N)(=O)=O)cc1[N+](=O)[O-] | 32.3 µM | – |
| COC(=O)CC1C2CC3C(C2=O)C13 (stereo not drawn) | > 100 µM | – |
| CCCCCC(C)C[C@H]1CO[C@H](c2ccc[nH]2)N[C@H]1C(=O)OC (stereo partly drawn) | > 100 µM | – |
| O=C(CCCC(=O)N1CC(CCl)c2ccc([N+](=O)[O-])cc21)N1CC(CCl)c2ccc([N+](=O)[O-])cc21 (stereo not drawn) | > 100 µM | – |
| COc1ccc(-c2cc(-c3ccc(Nc4ccnc5cc(Cl)ccc45)cc3)nc(N)c2C#N)c2ccccc12 | > 100 µM | – |
| O=C1/C(=C\c2cccs2)Oc2ccccc21 | > 100 µM | – |
| CC1=C(C#N)S(=O)(=O)c2c(oc(C)c2C)N1 | > 100 µM | – |
| c1ccc2c(NCCCCCCCCNc3c4ccccc4nc4ccccc34)c3ccccc3nc2c1 | 2.01 µM | – |
| CC1(C)C2CCC1C(=O)C(C=O)C2 (stereo not drawn) | > 100 µM | – |
| CC(C)(C)N=CN1CCC(C(c2ccccc2)c2ccccc2)CC1 | > 100 µM | – |
| CN(C)CCNC(=O)c1cccc(CO)c1[N+](=O)[O-] | > 100 µM | – |
| COc1cccc2c(=O)c3c(sc12)c(NCCCN)nc1ccccc13 | 2.86 µM | 1.52 µM |
| COc1cccc(/C=C/C2=NN(c3cccc(S(=O)(=O)O)c3)C3(C2)SCC(=O)N3c2nc3ccccc3s2)c1 (stereo not drawn) | > 100 µM | – |
| Cn1cnc([N+](=O)[O-])c1Sc1ncnc2nc[nH]c12 | > 100 µM | 2.69 µM and 4.84 µM |
| Clc1ccc(OCc2nnc(CCCCCCCCc3nnc(COc4ccc(Cl)cc4Cl)o3)o2)c(Cl)c1 | > 100 µM | – |
| CC(NC(=O)C(NC(=O)OC(C)(C)C)C(C)C)C(=O)NCC(=O)O (stereo not drawn) (Boc-Val-Ala-Gly-OH; configuration not given here) | > 100 µM | – |
| COc1ccc2c(c1)CC[C@@H]1[C@@H]2CC[C@]2(C)/C(=N/OCCN3CCCCC3)CC[C@@H]12 | 11.3 µM | – |
